Among all 310,000 compounds or so, about 2,200 (0.71%) showed an effect of 50% or more. The effect is printed as a negative number. This is one part of the list.
target: human ether-à-go-go-related gene (hERG) potassium channel (human, UniProt Q12809); assay: primary screen, population patch clamp on CHO cells stably expressing hERG
Sequence (Q12809 whole entry, looked up): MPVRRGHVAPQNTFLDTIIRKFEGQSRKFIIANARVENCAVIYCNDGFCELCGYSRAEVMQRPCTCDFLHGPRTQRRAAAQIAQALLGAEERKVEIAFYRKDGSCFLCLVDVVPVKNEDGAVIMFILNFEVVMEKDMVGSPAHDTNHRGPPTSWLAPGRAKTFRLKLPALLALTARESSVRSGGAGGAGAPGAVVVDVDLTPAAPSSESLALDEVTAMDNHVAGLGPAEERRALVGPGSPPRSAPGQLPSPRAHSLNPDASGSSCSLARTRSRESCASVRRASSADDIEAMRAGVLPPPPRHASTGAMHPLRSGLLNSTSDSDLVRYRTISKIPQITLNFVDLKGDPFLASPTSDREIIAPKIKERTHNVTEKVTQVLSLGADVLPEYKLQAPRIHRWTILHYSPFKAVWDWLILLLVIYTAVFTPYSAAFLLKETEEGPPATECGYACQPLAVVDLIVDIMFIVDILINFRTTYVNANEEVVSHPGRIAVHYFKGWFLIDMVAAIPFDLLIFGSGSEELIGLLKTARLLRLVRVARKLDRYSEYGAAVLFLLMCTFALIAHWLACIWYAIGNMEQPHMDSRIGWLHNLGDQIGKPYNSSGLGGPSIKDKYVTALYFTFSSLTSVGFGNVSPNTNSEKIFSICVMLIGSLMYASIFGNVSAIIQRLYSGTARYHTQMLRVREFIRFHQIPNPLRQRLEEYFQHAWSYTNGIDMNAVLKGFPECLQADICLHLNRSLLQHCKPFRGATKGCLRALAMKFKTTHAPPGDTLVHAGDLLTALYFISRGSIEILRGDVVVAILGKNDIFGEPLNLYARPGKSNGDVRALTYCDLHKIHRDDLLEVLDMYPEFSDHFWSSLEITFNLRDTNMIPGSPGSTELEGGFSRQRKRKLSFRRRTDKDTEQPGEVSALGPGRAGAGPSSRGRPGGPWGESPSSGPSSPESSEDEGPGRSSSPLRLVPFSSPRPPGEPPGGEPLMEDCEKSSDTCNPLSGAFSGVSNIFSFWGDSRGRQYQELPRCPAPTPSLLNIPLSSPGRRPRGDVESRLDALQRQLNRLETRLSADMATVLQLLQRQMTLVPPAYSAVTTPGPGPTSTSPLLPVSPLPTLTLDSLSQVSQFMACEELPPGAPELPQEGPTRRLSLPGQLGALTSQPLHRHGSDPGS

Compared with `CCC(C)NC(=O)c1cc(Sc2nnc(C)s2)nc2ccccc12` (stereo not shown), `CCOc1ccccc1C(=O)Nc1ccc2nc(N3CCN(c4ncccn4)CC3)cc(C)c2c1` is lower in “hERG current change (%, negative = inhibition) at 1uM” value: 12% for the first, 4.48% for the second.

First: COc1cccc(/C=N/NC(=O)c2ccc(-c3ccccc3)cc2)c1O
Second: O=C(NNC(=S)NC(=O)c1ccccc1)c1ccc(O)cc1
The “hERG current change (%, negative = inhibition) at 1uM” value of the first is lower: 5.03% for the first, 14.8% for the second.

Compared with `C=CCN=C(C)C1=C(O)CCC1=O`, `COc1cc2ccccc2c2c1CCCC2=O` is higher in “hERG current change (%, negative = inhibition) at 1uM” value: 15.5% for the first, 17% for the second.

Going from `Cc1csc2nc(CNS(=O)(=O)c3ccc4c(c3)CCCC4)cn12` to `CC(C)(C)NS(=O)(=O)c1ccc(CCC(=O)Nc2ccc3c(c2)OCCO3)cc1`, the “hERG current change (%, negative = inhibition) at 1uM” value rises from 7.63% to 9.63%.

First: CCN(CC)S(=O)(=O)c1ccc(-c2nnc(SCc3nnc(-c4ccc(C)cc4)o3)o2)cc1
Second: CCn1c(SCc2ccc(C)cc2)nnc1C1CCN(S(=O)(=O)c2ccc(OC)cc2)CC1
The “hERG current change (%, negative = inhibition) at 1uM” value of the first is higher: 12.2% for the first, -5.14% for the second.

Compared with `O=[N+]([O-])c1cnccc1Nc1ccc(F)cc1`, `O=[N+]([O-])c1cc(N=Nc2ccc3ccccc3c2)ccc1O` is higher in “hERG current change (%, negative = inhibition) at 1uM” value: 4.8% for the first, 13.3% for the second.

Going from `CC(C)Cc1nc(Nc2ccc(S(=O)(=O)N3CCCC3)cc2)c2nnn(Cc3ccccc3)c2n1` to `Cn1c(=O)c(C(=O)CN2CCN(S(=O)(=O)c3ccccc3)CC2)c(N)n(Cc2ccccc2)c1=O`, the “hERG current change (%, negative = inhibition) at 1uM” value rises from 5.97% to 9.03%.

Going from `CC1CCCCC12NC(=O)N(CC(=O)Nc1ccc3c(c1)OCCCO3)C2=O` (stereo not shown) to `CC1CC(C)(C)CC2(C1)NC(=O)N(CC(=O)Nc1ccc3[nH]c(=O)[nH]c3c1)C2=O` (stereo not shown), the “hERG current change (%, negative = inhibition) at 1uM” value falls from 2.21% to 1.66%.

Compared with `O=C(/C=C/c1c(F)cccc1Cl)N1CCc2ccccc2C1`, `O=C(c1ccccc1F)c1cn(CC(=O)N2CCCC2)c2ccccc12` is lower in “hERG current change (%, negative = inhibition) at 1uM” value: 13.7% for the first, 6.87% for the second.

Going from `CN(C)C(CNC(=O)c1ccc(S(=O)(=O)NCc2ccco2)cc1)c1ccccc1` (stereo not shown) to `Cc1ccc(C(=O)NCC(=O)OC(C)C(=O)NC2CCCc3ccccc32)cc1` (stereo not shown), the “hERG current change (%, negative = inhibition) at 1uM” value falls from 12.3% to 2.54%.

Going from `CC(C)NC(=O)C(c1ccc(F)cc1)N(C(=O)CCC(=O)Nc1ccccn1)C1CCCC1` (stereo not shown) to `CCOc1ccc(NC(=O)c2ccccc2O)cc1`, the “hERG current change (%, negative = inhibition) at 1uM” value falls from 16.7% to 3.49%.

Compared with `COc1ccc(N(Cc2cc3ccc(C)cc3[nH]c2=O)C(=O)c2ccco2)cc1`, `Cc1ccc(N(Cc2cc3ccccc3[nH]c2=O)C(=O)c2ccco2)c(C)c1` is lower in “hERG current change (%, negative = inhibition) at 1uM” value: 15.6% for the first, -2.17% for the second.

First: COc1ccc([N+](=O)[O-])cc1NC(=O)c1ccc(CN(c2ccc(C)c(C)c2)S(C)(=O)=O)cc1
Second: COc1ccc(N(CC(=O)NCc2ccccc2)C(=O)Cn2nnc(-c3ccccc3F)n2)cc1OC
The “hERG current change (%, negative = inhibition) at 1uM” value of the first is higher: 12% for the first, -1.32% for the second.

Going from `Cc1[nH]n(C2=NCCS2)c(=O)c1N=Nc1ccccc1` to `O=C(O)c1c2c(nc3ccccc13)-c1ccccc1CC2`, the “hERG current change (%, negative = inhibition) at 1uM” value falls from 18% to 14.4%.

First: Cc1nn(-c2ccccc2)c(C)c1NC(=O)COC(=O)Cc1cccc(C(F)(F)F)c1
Second: CC(Sc1nc(-c2ccccc2)cc(C(F)(F)F)n1)C(=O)Nc1ccc2c(c1)OCO2 (stereo not shown)
The “hERG current change (%, negative = inhibition) at 1uM” value of the first is lower: -1.04% for the first, 8% for the second.

Going from `CCN1CCN(C(c2cccs2)C(C)NC(=O)Oc2ccccc2)CC1` (stereo not shown) to `CCOc1ccccc1N1CCN(c2nc3ccccc3nc2C(C#N)C(=O)OC(C)C)CC1` (stereo not shown), the “hERG current change (%, negative = inhibition) at 1uM” value rises from -24.6% to 12.5%.

Compared with `O=C(COc1coc(CN2CCN(c3ccccc3F)CC2)cc1=O)N1CCc2ccccc21`, `O=C(COc1ccc(Cl)cc1)NCc1nnc(SCC(=O)N2CCCc3ccccc32)o1` is higher in “hERG current change (%, negative = inhibition) at 1uM” value: -1.09% for the first, 0.965% for the second.

Going from `O=C(Cn1cc2c(n1)CCCC2)N1CCOCC1` to `O=C(CSCc1ccc(Br)cc1)N1CCCC1`, the “hERG current change (%, negative = inhibition) at 1uM” value rises from 6.4% to 11.4%.

Going from `COc1ccc(-c2[nH]nc3c2C2(C(=O)N(CC(=O)O)c4ccccc42)C(C#N)=C(N)O3)cc1OC` (stereo not shown) to `O=C(CCN1C(=O)c2ccccc2C1=O)Nc1ccccc1C(=O)N1CCOCC1`, the “hERG current change (%, negative = inhibition) at 1uM” value falls from 12.4% to 3.05%.

Going from `Cc1cc2cc(CN(Cc3cccs3)C(=S)NCc3ccco3)c(=O)[nH]c2cc1C` to `CC(=O)c1cccc(NC(=O)CC2Oc3ccc(C)cc3NC2=O)c1` (stereo not shown), the “hERG current change (%, negative = inhibition) at 1uM” value rises from -3.92% to 5.49%.

Compared with `COC(=O)C1CCN(S(=O)(=O)c2cn(C)c(=O)n(C)c2=O)CC1`, `CCS(=O)(=O)N1CCC(C(=O)N2CCN(c3ccccc3)CC2)CC1` is lower in “hERG current change (%, negative = inhibition) at 1uM” value: 27.8% for the first, 5.11% for the second.

Going from `COc1cc(OC)c(C(=O)NCCCn2ccnc2)cc1OC.Cl` to `COc1cc(/C=C/C(=O)OCC(=O)Nc2ccc(C)c(S(=O)(=O)N3CCCCC3)c2)ccc1O`, the “hERG current change (%, negative = inhibition) at 1uM” value falls from 7.95% to 1.95%.

Compared with `CCCC12CN3CC(C)(CN(C1)C3c1ccc([N+](=O)[O-])o1)C2=O` (stereo not shown), `CCSc1nnc(NC(=O)Cc2ccc(OC)c(S(=O)(=O)N3CCOCC3)c2)s1` is higher in “hERG current change (%, negative = inhibition) at 1uM” value: 5.7% for the first, 10.8% for the second.

Going from `O=C(c1ccccc1)N1N=C(c2ccccc2O)CC1c1ccc(Br)cc1` (stereo not shown) to `O=C(O/N=C(\c1ccccc1)c1ccncc1)c1ccccc1Cl`, the “hERG current change (%, negative = inhibition) at 1uM” value rises from 21.1% to 21.7%.

Compared with `CC(C(=O)O)N1C(=O)C2C3c4ccccc4C(c4ccccc43)[C@@H]2C1=O` (stereo partly shown), `CCOc1ccc(N2C(=O)CC(NCCc3c[nH]c4ccccc34)C2=O)cc1` (stereo not shown) is lower in “hERG current change (%, negative = inhibition) at 1uM” value: 20.6% for the first, 8.73% for the second.

First: O=C(COC(=O)Cc1ccsc1)NC1CCCCCC1
Second: COc1ccc(NC(=O)C2=NN(C3CCS(=O)(=O)C3)C(=O)CC2)cn1 (stereo not shown)
The “hERG current change (%, negative = inhibition) at 1uM” value of the first is lower: -4.66% for the first, 16.7% for the second.

Compared with `CC(C)=CC(=O)Nc1ccc(Cl)cc1`, `CCCc1cc(=O)[nH]c(SCc2ccccc2Cl)n1` is higher in “hERG current change (%, negative = inhibition) at 1uM” value: -4.15% for the first, -1.94% for the second.

`COCc1cc(=O)n2[nH]c(N)nc2n1` was tested, and the “hERG current change (%, negative = inhibition) at 1uM” value was 10.8%.
